# The supplement of paper PMC8728848
# The list shows a part of the results.
# B1: Epa1to9 (Candida glabrata) (protein)
# chain: MGSSHHHHHHSSGLVPRGSHMTSSNDISLASKDPTTFPLGCSPDITTPKKGLSMELYSYDFRKKGSYPCWDAAYLDPNYPRTGYKSHRLLAKVDGVTGNINFYYHATKGCTPQLGHLPASYNYPKPLTMTNFTMLLYGYFRPKVTGFHTFTISADDLLFVNFGAGNAFDCCRRDSSADHFGNYQAYAIWGSKTAKDELTVHLDAGVYYPIRLFYNNRDYHGALSFTFKTESNENTVSDFSEYFFSLDDTEEGCPGLISYD
# Assays:
# Assay in all cases: glycan array binding signal (z-score within array); higher = stronger binding
# Settings in all cases: glycan notation: IUPAC condensed, linker removed
# [1] = molecular target: Neu5Ac(a2-3)Gal(b1-4)GlcNAc(b1-2)Man(a1-3)[Neu5Ac(a2-6)Gal(b1-4)GlcNAc(b1-2)Man(a1-6)]Man(b1-4)GlcNAc(b1-4)GlcNAc
# Procedure, shortened: (§1)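 Glycan array data came from 3228 arrays in the Consortium for Functional Glycomics database, and only arrays with an available protein sequence were kept. Glycan names were put into IUPAC-condensed notation, and columns mapping to the same glycan were averaged. The binding signal is a within-array Z-score, averaged across arrays of one protein sequence run at different concentrations or buffers and across linkers. A negative Z-score can be read as non-binding.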
# [2] = molecular target: Neu5Ac(a2-3)Gal(b1-4)GlcNAc(b1-2)[Neu5Ac(a2-3)Gal(b1-4)GlcNAc(b1-4)]Man(a1-3)[GlcNAc(b1-4)][Neu5Ac(a2-3)Gal(b1-4)GlcNAc(b1-2)[Neu5Ac(a2-3)Gal(b1-4)GlcNAc(b1-6)]Man(a1-6)]Man(b1-4)GlcNAc(b1-4)GlcNAc
# Procedure, shortened: as §1
# [3] = molecular target: Neu5Ac(a2-3)Gal(b1-4)GlcNAc(b1-2)[Neu5Ac(a2-3)Gal(b1-4)GlcNAc(b1-4)]Man(a1-3)[GlcNAc(b1-4)][Neu5Ac(a2-3)Gal(b1-4)GlcNAc(b1-4)Man(a1-6)]Man(b1-4)GlcNAc(b1-4)GlcNAc
# Procedure, shortened: as §1
# [4] = molecular target: Neu5Ac(a2-3)Gal(b1-4)GlcNAc(b1-2)[Neu5Ac(a2-3)Gal(b1-4)GlcNAc(b1-6)]Man(a1-6)[Neu5Ac(a2-3)Gal(b1-4)GlcNAc(b1-2)Man(a1-3)][GlcNAc(b1-4)]Man(b1-4)GlcNAc(b1-4)GlcNAc
# Procedure, shortened: as §1
# [5] = molecular target: Neu5Ac(a2-3)Gal(b1-4)GlcNAc(b1-3)Gal
# Procedure, shortened: as §1
# [6] = molecular target: Neu5Ac(a2-3)Gal(b1-4)GlcNAc(b1-3)Gal(b1-3)GlcNAc
# Procedure, shortened: as §1
# [7] = molecular target: Neu5Ac(a2-3)Gal(b1-4)GlcNAc(b1-3)Gal(b1-4)GlcNAc
# Procedure, shortened: as §1
# [8] = molecular target: Neu5Ac(a2-3)Gal(b1-4)GlcNAc(b1-3)Gal(b1-4)GlcNAc(b1-2)Man(a1-3)[Neu5Ac(a2-3)Gal(b1-4)GlcNAc(b1-3)Gal(b1-4)GlcNAc(b1-2)Man(a1-6)]Man(b1-4)GlcNAc(b1-4)GlcNAc
# Procedure, shortened: as §1
# [9] = molecular target: Neu5Ac(a2-3)Gal(b1-4)GlcNAc(b1-3)Gal(b1-4)GlcNAc(b1-3)Gal(b1-4)GlcNAc
# Procedure, shortened: as §1
# [10] = molecular target: Neu5Ac(a2-3)Gal(b1-4)GlcNAc(b1-3)Gal(b1-4)GlcNAc(b1-3)Gal(b1-4)GlcNAc(b1-2)Man(a1-3)[Neu5Ac(a2-3)Gal(b1-4)GlcNAc(b1-3)Gal(b1-4)GlcNAc(b1-3)Gal(b1-4)GlcNAc(b1-2)Man(a1-6)]GalNAc
# Procedure, shortened: as §1
# [11] = molecular target: Neu5Ac(a2-3)Gal(b1-4)GlcNAc(b1-3)Gal(b1-4)GlcNAc(b1-3)GalNAc
# Procedure, shortened: as §1
# [12] = molecular target: Neu5Ac(a2-3)Gal(b1-4)GlcNAc(b1-3)Gal(b1-4)GlcNAc(b1-3)[Neu5Ac(a2-3)Gal(b1-4)GlcNAc(b1-3)Gal(b1-4)GlcNAc(b1-6)]GalNAc
# Procedure, shortened: as §1
# [13] = molecular target: Neu5Ac(a2-3)Gal(b1-4)GlcNAc(b1-3)Gal(b1-4)GlcNAc(b1-6)[Gal(b1-3)]GalNAc
# Procedure, shortened: as §1
# [14] = molecular target: Neu5Ac(a2-3)Gal(b1-4)GlcNAc(b1-3)Gal(b1-4)[Fuc(a1-3)]GlcNAc
# Procedure, shortened: as §1
# [15] = molecular target: Neu5Ac(a2-3)Gal(b1-4)GlcNAc(b1-3)GalNAc
# Procedure, shortened: as §1
# [16] = molecular target: Neu5Ac(a2-3)Gal(b1-4)GlcNAc(b1-3)[Neu5Ac(a2-3)Gal(b1-4)GlcNAc(b1-6)]GalNAc
# Procedure, shortened: as §1
# [17] = molecular target: Neu5Ac(a2-3)Gal(b1-4)GlcNAc(b1-6)GalNAc
# Procedure, shortened: as §1
# [18] = molecular target: Neu5Ac(a2-3)Gal(b1-4)GlcNAc(b1-6)[Gal(b1-3)]GalNAc
# Procedure, shortened: as §1
# [19] = molecular target: Neu5Ac(a2-3)Gal(b1-4)GlcNAc(b1-6)[Neu5Ac(a2-3)Gal(b1-3)]GalNAc
# Procedure, shortened: as §1
# [20] = molecular target: Neu5Ac(a2-3)Gal(b1-4)GlcNAc6S
# Procedure, shortened: as §1
# [21] = molecular target: Neu5Ac(a2-3)Gal(b1-4)[Fuc(a1-3)]GlcNAc
# Procedure, shortened: as §1
# [22] = molecular target: Neu5Ac(a2-3)Gal(b1-4)[Fuc(a1-3)]GlcNAc(b1-2)Man
# Procedure, shortened: as §1
# [23] = molecular target: Neu5Ac(a2-3)Gal(b1-4)[Fuc(a1-3)]GlcNAc(b1-3)Gal
# Procedure, shortened: as §1
# [24] = molecular target: Neu5Ac(a2-3)Gal(b1-4)[Fuc(a1-3)]GlcNAc(b1-3)Gal(b1-4)GlcNAc
# Procedure, shortened: as §1
# [25] = molecular target: Neu5Ac(a2-3)Gal(b1-4)[Fuc(a1-3)]GlcNAc(b1-3)Gal(b1-4)[Fuc(a1-3)]GlcNAc(b1-3)Gal(b1-4)[Fuc(a1-3)]GlcNAc
# Procedure, shortened: as §1
# [26] = molecular target: Neu5Ac(a2-3)Gal(b1-4)[Fuc(a1-3)]GlcNAc(b1-3)GalNAc
# Procedure, shortened: as §1
# [27] = molecular target: Neu5Ac(a2-3)Gal(b1-4)[Fuc(a1-3)]GlcNAc(b1-6)[Gal(b1-3)]GalNAc
# Procedure, shortened: as §1
# [28] = molecular target: Neu5Ac(a2-3)Gal(b1-4)[Fuc(a1-3)]GlcNAc(b1-6)[Neu5Ac(a2-3)Gal(b1-3)]GalNAc
# Procedure, shortened: as §1
# [29] = molecular target: Neu5Ac(a2-3)Gal(b1-4)[Fuc(a1-3)]GlcNAc6S
# Procedure, shortened: as §1
# [30] = molecular target: Neu5Ac(a2-3)Gal6S(b1-4)GlcNAc
# Procedure, shortened: as §1
# [31] = molecular target: Neu5Ac(a2-3)Gal6S(b1-4)[Fuc(a1-3)]GlcNAc
# Procedure, shortened: as §1
# Neu5Ac(a2-3)GalNAc = molecular target: Neu5Ac(a2-3)GalNAc
# Procedure, shortened: as §1
# [32] = molecular target: Neu5Ac(a2-3)GalNAc(b1-4)GlcNAc
# Procedure, shortened: as §1
# [33] = molecular target: Neu5Ac(a2-3)[GalNAc(b1-4)]Gal(b1-4)Glc
# Procedure, shortened: as §1
# [34] = molecular target: Neu5Ac(a2-3)[GalNAc(b1-4)]Gal(b1-4)GlcNAc
# Procedure, shortened: as §1
# [35] = molecular target: Neu5Ac(a2-3)[GalNAc(b1-4)]Gal(b1-4)GlcNAc(b1-3)GalNAc
# Procedure, shortened: as §1
# [36] = molecular target: Neu5Ac(a2-3)[Neu5Ac(a2-6)]GalNAc
# Procedure, shortened: as §1
binder,measurement,setting,value
B1,glycan array binding signal (z-score),[1],-0.322
same,glycan array binding signal (z-score),[2],-0.375
same,glycan array binding signal (z-score),[3],-0.357
same,glycan array binding signal (z-score),[4],-0.344
same,glycan array binding signal (z-score),[5],-0.359
same,glycan array binding signal (z-score),[6],-0.35
same,glycan array binding signal (z-score),[7],-0.342
same,glycan array binding signal (z-score),[8],-0.24
same,glycan array binding signal (z-score),[9],-0.327
same,glycan array binding signal (z-score),[10],-0.308
same,glycan array binding signal (z-score),[11],-0.345
same,glycan array binding signal (z-score),[12],-0.202
same,glycan array binding signal (z-score),[13],0.155
same,glycan array binding signal (z-score),[14],-1.82
same,glycan array binding signal (z-score),[15],-0.353
same,glycan array binding signal (z-score),[16],-0.351
same,glycan array binding signal (z-score),[17],-0.344
same,glycan array binding signal (z-score),[18],0.787
same,glycan array binding signal (z-score),[19],-0.321
same,glycan array binding signal (z-score),[20],-0.33
same,glycan array binding signal (z-score),[21],-0.343
same,glycan array binding signal (z-score),[22],-0.355
same,glycan array binding signal (z-score),[23],-0.342
same,glycan array binding signal (z-score),[24],-0.255
same,glycan array binding signal (z-score),[25],-0.328
same,glycan array binding signal (z-score),[26],-0.109
same,glycan array binding signal (z-score),[27],-0.061
same,glycan array binding signal (z-score),[28],-0.283
same,glycan array binding signal (z-score),[29],-0.36
same,glycan array binding signal (z-score),[30],-0.294
same,glycan array binding signal (z-score),[31],-0.352
same,glycan array binding signal (z-score),Neu5Ac(a2-3)GalNAc,-0.353
same,glycan array binding signal (z-score),[32],-0.358
same,glycan array binding signal (z-score),[33],-0.349
same,glycan array binding signal (z-score),[34],-0.346
same,glycan array binding signal (z-score),[35],-0.35
same,glycan array binding signal (z-score),[36],-0.358
